± gives the standard deviation of the averaged measurements. Whole data set: some 33,000 sequences, median “E-score (dimensionless, -0.5 to 0.5)” near -0.046, cut for the highest 2% near 0.36. Some of the results follow.

This experiment has as its system T1, SpTbr T-box DNA-binding domain (GST fusion).
T1 sequence: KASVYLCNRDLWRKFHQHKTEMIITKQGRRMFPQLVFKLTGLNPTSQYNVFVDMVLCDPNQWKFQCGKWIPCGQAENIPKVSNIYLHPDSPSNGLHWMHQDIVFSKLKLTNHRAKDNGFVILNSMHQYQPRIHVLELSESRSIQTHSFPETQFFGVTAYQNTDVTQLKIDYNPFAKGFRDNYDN
The experiment can be described thus: PBM E-score of 8-mer (E-score (dimensionless, -0.5 to 0.5)); Tbr is Tbrain of the sea star Patiria miniata (Pm) or the sea urchin Strongylocentrotus purpuratus (Sp); higher = stronger binding preference; most listed sequences are background and not binding sites. The settings on record: the construct has about 5 more residues each side. The method in brief: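 Primer extension turned Universal Agilent oligonucleotide arrays double-stranded. They were incubated with 200 nM protein in PBS (pH 7.5); the protein was a GST-fused Tbr T-box DNA-binding domain expressed in BL21 E. coli at 20 °C and purified on glutathione. Every ungapped 8-mer was scored from the scanned, quantified probe intensities, and the Universal PBM Analysis Suite gave each an enrichment E-score averaged over duplicate arrays.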
GGAGGAAC: the “PBM E-score of 8-mer” value was 0.0261 ± 0.0092.

On to ATAAGGCG, for which the “PBM E-score of 8-mer” value was determined as 0.132 ± 0.032.

Take AGCTCAAA: the “PBM E-score of 8-mer” value is -0.0834 ± 0.014.

For CGACGTGA, the “PBM E-score of 8-mer” value amounted to 0.1944 ± 0.0016.

Regarding ATCTCAAG, the “PBM E-score of 8-mer” value is -0.194 ± 0.006.

As for AGGCTTGA, the “PBM E-score of 8-mer” value is -0.0292 ± 0.044.

With CAGGTGGC, the “PBM E-score of 8-mer” value was found to be 0.323 ± 0.0069.

For ATAGTTGC, the “PBM E-score of 8-mer” value is -0.0102 ± 0.0014.

For ACTTGAAT, the “PBM E-score of 8-mer” value is -0.136 ± 0.049.

Regarding ACCAGCCG, the “PBM E-score of 8-mer” value stood at 0.103 ± 0.028.

Turning to CGTAGTCA, the “PBM E-score of 8-mer” value is 0.058 ± 0.058.

Turning to TACAGAAA, the “PBM E-score of 8-mer” value is -0.16 ± 0.068.

In the case of CGACCTCC, the “PBM E-score of 8-mer” value was -0.143 ± 0.083.

In the case of CCAGTTCA, the “PBM E-score of 8-mer” value was found to be 0.0129 ± 0.036.

On to GAGGATAC, for which the “PBM E-score of 8-mer” value was 0.118 ± 0.007.

With CCTCAGTA, the “PBM E-score of 8-mer” value was -0.105 ± 0.0033.

As for AATCATTA, the “PBM E-score of 8-mer” value is -0.0678 ± 0.095.

Regarding ACTTCAGA, the “PBM E-score of 8-mer” value was -0.173 ± 0.046.

With TAGCGCCA, the “PBM E-score of 8-mer” value amounted to 0.334 ± 0.025.

For CAACTGAG, the “PBM E-score of 8-mer” value was -0.018 ± 0.0018.

Turning to GACAACCA, the “PBM E-score of 8-mer” value worked out at 0.262 ± 0.0098.

Regarding CGGTCAAC, the “PBM E-score of 8-mer” value is 0.0294 ± 0.072.

As for AGACGCCG, the “PBM E-score of 8-mer” value was -0.0415 ± 0.057.

In the case of TAGGGATA, the “PBM E-score of 8-mer” value was -0.323 ± 0.053.

Consider GAAGCCGA, for which the “PBM E-score of 8-mer” value was -0.0138 ± 0.031.

CGGCCCAC: the “PBM E-score of 8-mer” value is -0.155 ± 0.03.

For GGCATCGA, the “PBM E-score of 8-mer” value was -0.0435 ± 0.034.

For the sequence CCCTCCGC, the “PBM E-score of 8-mer” value came to 0.0925 ± 0.039.

AATACACA: the “PBM E-score of 8-mer” value came out at 0.153 ± 0.049.

With ATGTGGAA, the “PBM E-score of 8-mer” value was 0.0153 ± 0.034.

Turning to GGAATAAC, the “PBM E-score of 8-mer” value came out at 0.0802 ± 0.023.

Consider CTGGTTAA, for which the “PBM E-score of 8-mer” value was -0.131 ± 0.031.

For CCTCTTAG, the “PBM E-score of 8-mer” value is -0.103 ± 0.044.

On to TAGTTTGA, for which the “PBM E-score of 8-mer” value was -0.107 ± 0.065.

CTCGTACA: the “PBM E-score of 8-mer” value was -0.151 ± 0.039.

As to CGGGAATC, the “PBM E-score of 8-mer” value is 0.0186 ± 0.011.

As for GCTGGGCC, the “PBM E-score of 8-mer” value was -0.144 ± 0.0084.

Take TATTCACA: the “PBM E-score of 8-mer” value worked out at 0.423 ± 0.023.

As for CACTCGCG, the “PBM E-score of 8-mer” value was 0.305 ± 0.055.

Consider ACCTATGG, for which the “PBM E-score of 8-mer” value amounted to 0.169 ± 0.063.

As for CTATCCCA, the “PBM E-score of 8-mer” value worked out at 0.0227 ± 0.039.

Regarding GAGAAACC, the “PBM E-score of 8-mer” value was determined as 0.0143 ± 0.067.

As for AGACGAGG, the “PBM E-score of 8-mer” value is -0.237 ± 0.07.

As for AGTAATTA, the “PBM E-score of 8-mer” value is -0.0156 ± 0.0019.

For CCTCCTTA, the “PBM E-score of 8-mer” value was 0.0284 ± 0.081.

Turning to ACGTGTGA, the “PBM E-score of 8-mer” value was 0.4797 ± 0.0017.

In the case of ATAACGCC, the “PBM E-score of 8-mer” value is 0.28 ± 0.032.

On to ACTGTTCG, for which the “PBM E-score of 8-mer” value is 0.162 ± 0.077.

For ATCGCGTA, the “PBM E-score of 8-mer” value is 0.13 ± 0.024.

Take TAAACGTA: the “PBM E-score of 8-mer” value is -0.15 ± 0.057.

With AACTCTTC, the “PBM E-score of 8-mer” value is -0.0442 ± 0.019.

On to AACCGGTG, for which the “PBM E-score of 8-mer” value is -0.0313 ± 0.081.

GTCGATTA: the “PBM E-score of 8-mer” value is -0.0532 ± 0.082.

On to TCACGTAA, for which the “PBM E-score of 8-mer” value is -0.0779 ± 0.033.

As to CGGCCAAA, the “PBM E-score of 8-mer” value was -0.0415 ± 0.0054.

Consider ATTGTTAA, for which the “PBM E-score of 8-mer” value is 0.268 ± 0.029.

Turning to CACCGCTA, the “PBM E-score of 8-mer” value was 0.137 ± 0.11.

Consider CTGTTAAG, for which the “PBM E-score of 8-mer” value is -0.00328 ± 0.026.

As to AACTGTGT, the “PBM E-score of 8-mer” value turned out to be 0.19 ± 0.0056.

With GCTTGACA, the “PBM E-score of 8-mer” value came to 0.258 ± 0.034.

Turning to AGCAAGCA, the “PBM E-score of 8-mer” value was -0.0131 ± 0.022.

As for TCCATGAA, the “PBM E-score of 8-mer” value was -0.206 ± 0.0095.

For CGAGCAAC, the “PBM E-score of 8-mer” value was determined as 0.0555 ± 0.018.

For GGTTACCA, the “PBM E-score of 8-mer” value was -0.0113 ± 0.0065.

For the sequence ACGGCCAT, the “PBM E-score of 8-mer” value is -0.0972 ± 0.0073.

In the case of GCCCCCGC, the “PBM E-score of 8-mer” value is -0.102 ± 0.026.

As for GACGCTGA, the “PBM E-score of 8-mer” value was -0.182 ± 0.085.

As for GTAGCGGA, the “PBM E-score of 8-mer” value was -0.069 ± 0.069.

Consider CGTCGGGA, for which the “PBM E-score of 8-mer” value is -0.243 ± 0.0031.

On to CTGGTCGC, for which the “PBM E-score of 8-mer” value was -0.0702 ± 0.03.

With ATTGGCAA, the “PBM E-score of 8-mer” value is 0.0872 ± 0.0069.

For ACGCGGAT, the “PBM E-score of 8-mer” value was 0.0845 ± 0.036.

Take ATTTCCCG: the “PBM E-score of 8-mer” value is -0.153 ± 0.03.

On to TAGAGGAA, for which the “PBM E-score of 8-mer” value was -0.279 ± 0.059.

For ATCACGCA, the “PBM E-score of 8-mer” value was 0.19 ± 0.026.

With AAAGCGCT, the “PBM E-score of 8-mer” value worked out at 0.0608 ± 0.028.

For the sequence CCTGTTAA, the “PBM E-score of 8-mer” value worked out at 0.168 ± 0.067.

For ATAGAACA, the “PBM E-score of 8-mer” value is 0.0898 ± 0.021.

On to AAAGGTCT, for which the “PBM E-score of 8-mer” value is -0.169 ± 0.032.

As to AGAGTGTA, the “PBM E-score of 8-mer” value came out at 0.0671 ± 0.0042.

Regarding CGTCACTA, the “PBM E-score of 8-mer” value stood at 0.217 ± 0.013.

CCAATCAG: the “PBM E-score of 8-mer” value was -0.132 ± 0.073.

Turning to AGCGGCAG, the “PBM E-score of 8-mer” value is -0.105 ± 0.044.

CCGTGTTA: the “PBM E-score of 8-mer” value was 0.158 ± 0.029.

In the case of ACCTTTAG, the “PBM E-score of 8-mer” value turned out to be 0.151 ± 0.06.

For ACTAAGGC, the “PBM E-score of 8-mer” value is -0.0549 ± 0.052.

ATGTACTA: the “PBM E-score of 8-mer” value is -0.0833 ± 0.037.

As to ATATGATA, the “PBM E-score of 8-mer” value was determined as 0.0801 ± 0.013.

Take TCAGAGCA: the “PBM E-score of 8-mer” value is -0.203 ± 0.0079.

GCACGGCA: the “PBM E-score of 8-mer” value was -0.112 ± 0.05.

As for AAATTCCA, the “PBM E-score of 8-mer” value was -0.0365 ± 0.02.

Consider GGGAGGTA, for which the “PBM E-score of 8-mer” value is -0.0233 ± 0.075.

On to ACAACAAC, for which the “PBM E-score of 8-mer” value was found to be 0.235 ± 0.0043.

For the sequence ACTCAAAT, the “PBM E-score of 8-mer” value was -0.11 ± 0.082.

In the case of GACTTAAC, the “PBM E-score of 8-mer” value is 0.158 ± 0.012.

Regarding ACGCTGTG, the “PBM E-score of 8-mer” value worked out at 0.0583 ± 0.06.

In the case of AATTAATA, the “PBM E-score of 8-mer” value is -0.0868 ± 0.03.

For ATAATATA, the “PBM E-score of 8-mer” value was -0.0059 ± 0.035.

On to ATCACGTG, for which the “PBM E-score of 8-mer” value was 0.211 ± 0.012.

On to CGCTCCAG, for which the “PBM E-score of 8-mer” value was -0.211 ± 0.091.

As for GAGTGCGC, the “PBM E-score of 8-mer” value is -0.0493 ± 0.043.

Turning to AGACACCC, the “PBM E-score of 8-mer” value amounted to 0.156 ± 0.041.

On to AATCAAGC, for which the “PBM E-score of 8-mer” value is -0.000185 ± 0.054.

Consider CAACTTAC, for which the “PBM E-score of 8-mer” value came to 0.0737 ± 0.045.

As to AGGTGTCG, the “PBM E-score of 8-mer” value was 0.486 ± 0.008.

Consider CTGGCCCA, for which the “PBM E-score of 8-mer” value is -0.282 ± 0.14.

Consider AGCCGCTA, for which the “PBM E-score of 8-mer” value is 0.067 ± 0.054.

On to CATCAGGA, for which the “PBM E-score of 8-mer” value was -0.308 ± 0.0039.

As to TCGTGCAA, the “PBM E-score of 8-mer” value is -0.0231 ± 0.017.

As to CGCATGAC, the “PBM E-score of 8-mer” value was -0.16 ± 0.037.

(Values after the supplement of paper PMC4166925.)
